Reference: PubChem BioAssay AID1468 (National Center for Advancing Translational Sciences (NCATS), 2008)
Hit rate of the full screen: of about 280,000 compounds, about 1,100 (0.39%) were called active. The shares of active, inactive and inconclusive entries below differ from those in the screen. Calls follow the shape of the dose curve; as a rule, active = well fitted inhibition curve with a large enough effect; inconclusive = small, poorly fitted or top-dose-only effect, or effect the other way; inactive = flat fitted curve, though single readings scatter. Potencies of inconclusive entries are left out as doubtful fits.

Target: Microtubule-associated protein tau (Homo sapiens) (UniProt P10636)
Sequence of UniProt P10636 (P10636 whole entry, looked up): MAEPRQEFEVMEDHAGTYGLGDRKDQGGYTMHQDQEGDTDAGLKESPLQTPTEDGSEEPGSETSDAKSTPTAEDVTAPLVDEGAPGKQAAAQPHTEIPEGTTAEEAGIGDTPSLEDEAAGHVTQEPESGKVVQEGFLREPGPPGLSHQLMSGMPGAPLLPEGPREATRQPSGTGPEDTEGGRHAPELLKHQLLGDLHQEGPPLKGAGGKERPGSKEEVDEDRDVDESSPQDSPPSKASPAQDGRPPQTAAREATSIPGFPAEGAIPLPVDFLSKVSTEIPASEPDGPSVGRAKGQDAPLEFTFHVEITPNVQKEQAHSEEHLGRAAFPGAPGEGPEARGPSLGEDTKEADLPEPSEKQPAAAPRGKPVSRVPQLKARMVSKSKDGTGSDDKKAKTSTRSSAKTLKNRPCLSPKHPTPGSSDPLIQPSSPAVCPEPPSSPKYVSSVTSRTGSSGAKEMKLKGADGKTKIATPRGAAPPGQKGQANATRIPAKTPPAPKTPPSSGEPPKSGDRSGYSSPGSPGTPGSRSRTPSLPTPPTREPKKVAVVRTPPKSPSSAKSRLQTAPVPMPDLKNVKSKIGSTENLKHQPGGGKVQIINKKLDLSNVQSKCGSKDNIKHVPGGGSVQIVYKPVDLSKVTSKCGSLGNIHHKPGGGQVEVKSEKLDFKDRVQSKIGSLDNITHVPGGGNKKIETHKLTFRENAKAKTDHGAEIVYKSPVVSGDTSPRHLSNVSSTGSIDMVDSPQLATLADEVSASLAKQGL
Test: qHTS for Inhibitors of Tau Fibril Formation, Fluorescence Polarization; also: nearly all actives have a fitted effect of over 55% in size
Details: K18 P301L tau heparin fibrillization, Alexa594 FP, 6 h; series mostly up to 57.7 µM; activity, negative = inhibition: at the top concentration
How it was run: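 K18 P301L tau (15 uM unlabeled/0.24 uM Alexa 594-labeled, final) + compound + heparin 20 uM final; 100 mM NaOAc pH 7; 6 hr 37 C; ThT 30 uM final added, 1 hr RT; FP ex 555/em 632 nm.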
% is scaled to controls: 0 for no effect and ±100 for the full control effect; potency is read from the fitted curve at half-maximal effect; tags tell the direction and shape of the fitted curve.

SMILES	activity, negative = inhibition	Potency
Cc1ccc([N+](=O)[O-])cc1N=C(c1ccc([N+](=O)[O-])cc1)N1CCOCC1	inactive: 0.152%	–
CSc1ccc(CNC(=O)c2ccccc2NC(=O)c2nsc3ccccc23)cc1	–	inconclusive [inhibitor, full curve, poor fit]
Cc1c(Cl)cccc1NC(=O)c1ccc(C(=O)Nc2cccc(Cl)c2C)cc1	–	inconclusive [inhibitor, single point]
Cc1ccc2c(c1)NC(c1cccs1)C1=C(CC(C)(C)CC1=O)N2 (configuration not stated)	inactive: 3.33%	–
CC(=O)Nc1ccc(S(=O)(=O)N2CCC(Oc3ccc(-n4cnnn4)cc3)CC2)cc1	–	inconclusive [inhibitor, single point]
Nc1nc2c(c(=O)[nH]1)N=C(CNc1ccc(C(=O)NC(CCC(=O)O)C(=O)O)cc1)CN2 (configuration not stated)	inactive: -1.96%	–
CC(=O)Nc1cccc(NC(=O)c2cc(-c3cccnc3)nc3ccc(Cl)cc23)c1	–	inconclusive [inhibitor, single point]
O=C(c1cccnc1Cl)N(Cc1ccccc1)Cc1ccccc1	inactive: -9.18%	–
COc1ccc(OCC(=O)OCC(=O)Nc2ccc(S(=O)(=O)N3CCCCC3)cc2)cc1	–	inconclusive [inhibitor, single point]
Cc1cc2cc(CN(CCCO)S(=O)(=O)c3cccc4nsnc34)c(=O)[nH]c2cc1C	inactive: -1.13%	–
CCOC(=O)c1ccc(NC(=O)CSc2nnc(CNc3ccc(OC)cc3)n2C)cc1	–	inconclusive [inhibitor, full curve, poor fit]
COc1ccccc1C1=NNC(=Nc2cccc(S(=O)(=O)N(C)C)c2)SC1	–	inconclusive [inhibitor, partial curve]
CC1CCN(C(=O)c2ccc(SCc3ccccc3F)c([N+](=O)[O-])c2)CC1	–	inconclusive [activator, single point]
O=C(Nc1ccccc1)c1cc2ccccc2o1	inactive: 4.74%	–
NC(=O)Cc1ccc(Nc2nnc(-c3ccc(O)cc3)c3ccccc23)cc1	inactive: 7.36%	–
C/C(=N\NC(=O)c1nn(C)cc1Br)c1cccc(NC(=O)c2ccncc2)c1	–	inconclusive [inhibitor, full curve, poor fit]
Cc1ccc(SCCNS(C)(=O)=O)cc1	–	inconclusive [inhibitor, full curve]
O=c1c2ccccc2n(Cc2cccc(F)c2)c(=O)n1Cc1ccccc1Cl	–	inconclusive [inhibitor, partial curve, poor fit]
O=C(COC(=O)c1ccccc1C(=O)c1ccc(Cl)c([N+](=O)[O-])c1)NC1CCCCCC1	inactive: -5.86%	–
Cc1ccc(NCCC(=O)c2cccs2)cc1C	–	inconclusive [activator, single point]
Cc1cc(C)cc(-n2nnc(-c3nc(-c4ccccc4F)no3)c2C)c1	inactive: 2.4%	–
COc1cccc(-c2cc(C(=O)Nc3ccc(C)cc3)[nH]n2)c1	–	inconclusive [inhibitor, partial curve]
O=[N+]([O-])c1cc(/C=N\Nc2nccs2)ccc1O	–	inconclusive [inhibitor, single point]
COc1ccc(NC(=O)c2sc3nc(C)c(C(=O)Nc4ccc(Cl)cc4)c(-c4ccc(Br)cc4)c3c2N)cc1	–	inconclusive [inhibitor, single point]

SMILES	activity, negative = inhibition	Potency
COc1ccc(N2CCN(S(=O)(=O)c3ccc4c(c3)CCCC4)CC2)c([N+](=O)[O-])c1	inactive: 6.66%	–
CC1CC(C)CN(C(=O)COC(=O)c2cc3ccccc3cc2O)C1 (configuration not stated)	inactive: -5.26%	–
COC(=O)c1cc2c(C)nn(-c3ccccc3)c2s1	inactive: -5.95%	–
COc1ccc(C(=O)/C(=C/O)N=Nc2ccc(F)cc2)cc1	inactive: -9.13%	–
CCOc1cc(C(=O)Nc2ccc3c4c(cccc24)C(=O)N3CC)cc(OCC)c1OCC	inactive: -0.677%	–
O=C(Nc1ccc(F)c(Cl)c1)c1cc(S(=O)(=O)N2CCCc3ccccc32)ccc1F	–	inconclusive [inhibitor, single point]
Cc1c(Cl)cccc1NC(=O)CCn1nc(C)c2c(C)n(-c3ccccc3)nc2c1=O	inactive: 2.3%	–
CCOc1ccccc1CNC(=O)c1cc(-c2ccc(OC)cc2)nc2ccc(C(C)C)cc12	inactive: -2.57%	–
CC1=NN(c2ccccc2)C(=O)C1C(=O)c1ccccc1 (configuration not stated)	inactive: -8.99%	–
COc1ccc(/C=C/c2noc(-c3ccccc3O)n2)cc1OC	–	inconclusive [inhibitor, partial curve]
Clc1ccc(-n2ncc3c(NCc4ccc5c(c4)OCO5)ncnc32)cc1	–	inconclusive [inhibitor, full curve, poor fit]
Nc1ccc2c(c1)Cc1cc([N+](=O)[O-])ccc1-2	inactive: 6.64%	–
CCOc1ccc(NC(=O)NCCCSC2CCCCC2)cc1	–	inconclusive [activator, partial curve, poor fit]
CCCn1c(NCc2ccccc2C)nc2ccccc21	inactive: 4.42%	–
Cc1ccc(N2C(=O)C(Cl)=C(NCCO)C2=O)c(C)c1	–	inconclusive [inhibitor, single point]
COc1ccc(-n2cc(-c3ccccc3)nc2SCC(=O)Nc2ccccc2)cc1Cl	–	inconclusive [inhibitor, single point]
CN(C)S(=O)(=O)c1cccc(C(=O)OCC(=O)Nc2sccc2C#N)c1	inactive: 4.33%	–
CCOc1ccc(-n2c(=O)c3sccc3n(CC(=O)Nc3cccc(OC)c3)c2=O)cc1	–	inconclusive [inhibitor, partial curve]
CC(=O)NC1C(=O)N=C(SCC(=O)Nc2c(C)cccc2C)NC1=O (configuration not stated)	inactive: -3.91%	–
NC(=S)NNc1cccc(Cl)c1	–	inconclusive [inhibitor, single point]
CCOC(=O)c1ccc(NC(=O)CC2C(=O)N(c3ccc(F)cc3)C(=O)N2Cc2ccc3c(c2)OCO3)cc1 (configuration not stated)	–	inconclusive [inhibitor, partial curve]
Cc1ccc(C)c(NS(=O)(=O)c2cc3c(cc2Cl)NC(=O)CO3)c1	inactive: 2.35%	–
COCC1=C2c3ccccc3[C@H](C[N+](=O)[O-])C(C(=O)OC)(C(=O)OC)C[C@@H]2n2c(=O)n(-c3ccccc3)c(=O)n2C1	–	inconclusive [inhibitor, single point]
